Laboratory results as given in PubChem BioAssay AID1963576 (National Center for Advancing Translational Sciences (NCATS), 2024).
Among all 46,000 compounds or so, about 60 (0.1%) were called active. About 3% were inconclusive and are not listed. Calls follow the shape of the dose curve; as a rule, active = well fitted inhibition curve with a large enough effect; inconclusive = small, poorly fitted or top-dose-only effect; inactive = no such curve, though single readings can be large or run the other way. The list shows a part of the results.

Test: Primary qHTS assay for Inhibitors of ovarian cancer metastasis using an organotypic tumor microenvironment (TME) model. Also: nearly all actives have a fitted effect of over 65% in size.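 As to activity change, negative = inhibition: plate controls were DMSO wells for no effect and tomatine positive control wells for full effect.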
Details: SKOV3ip1-GFP adhesion/invasion on 3D omental model, fluorescence; series mostly up to 45.8 µM; activity change, negative = inhibition: at the top concentration
In short: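 qHTS, 4-pt dose (0.36-46 umol/L); SKOV3ip1-GFP, 1,200 cells/well, no FBS; primary omental fibroblast/mesothelial co-culture 48 h pre-grown; 2 h RT + 16 h 37 C; PBS wash, 4% PFA; GFP count 488/509 nm.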

Activity change, negative = inhibition, inactive:
O=C(CSc1nccn1Cc1ccc(Cl)cc1)Nc1ccc2c(c1)OCCO2 0.781%
COc1cccc(C(c2c(O)cc(C)n(Cc3ccco3)c2=O)N2CCN(c3ccccc3)CC2)c1 (stereo not drawn) -2.73%
COc1cc(Cl)c(C)cc1NC(=O)Cn1ncc2c([nH]c3ccccc32)c1=O 1.79%
COc1ccc(CNC(=O)C(C)n2ccc3cc(S(=O)(=O)N4CCCC4)ccc32)cc1OC (stereo not drawn) 7.37%
Cc1cc(C)cc(NS(=O)(=O)c2ccc3c(c2)CCCN3C(=O)C2CCC2)c1 1.51%
O=C(Nc1ccc(Br)cc1F)c1ncoc1-c1ccco1 -2.66%
Cc1oc2ncn(C)c(=O)c2c1C(=O)NCCCN1CCCC(C)C1 (stereo not drawn) -1.71%
COCCCNC(=O)c1ccc2c(=O)n(Cc3ccc(OC)cc3)c(=O)[nH]c2c1 13.8%
O=C(CN1C(=O)COc2ccc(S(=O)(=O)N3CCOCC3)cc21)N1CCN(c2ccccc2)CC1 -3.64%
COC(=O)[C@@H]1CC2=CC(=O)CC[C@]2(C)[C@@]23O[C@@H]2C[C@@]2(C)[C@H](CC[C@@]24CCC(=O)O4)[C@@H]13 -0.985%
CCOc1cc(-c2nc(-c3ccc(Br)cc3)no2)cc(OCC)c1OCC -7.94%
O=C(COc1ccccc1)N(Cc1cccnc1)c1nc2ccc(F)cc2s1 -1.27%
COc1ccc(-c2cc(C(F)(F)F)n3nc(C(=O)NCC45CC6CC(CC(C6)C4)C5)cc3n2)cc1 -2.18%
COc1ccc(CNC(=O)CN(c2cc(C)cc(C)c2)S(=O)(=O)c2c(C)[nH]c(=O)[nH]c2=O)cc1 0.867%
CCOC(=O)c1c(NC(=O)c2cc(C(C)C)on2)sc(C)c1C 9.53%
Cc1cccc(CSc2nc3c(c(=O)[nH]2)C(c2cccc(O)c2)CC(=O)N3)c1 (stereo not drawn) -15.1%
Cc1ccc(S(=O)(=O)C(CNC(=O)c2ccccc2F)c2cccs2)cc1 (stereo not drawn) 5.49%
CC(C)(C)C(=O)Oc1ccc(S(=O)(=O)Nc2ccccc2C(=O)NCC(=O)O)cc1 13.3%
COc1ccc(CCNC(=O)C2CCCN(c3nc4c(C)cc(C)cc4s3)C2)cc1OC (stereo not drawn) 4.64%
Cc1nc(-c2ccc(C)c(S(=O)(=O)N3CCC(C(=O)NCc4ccc(Cl)cc4)CC3)c2)no1 -5.55%
Cn1c(SCc2ccc(F)cc2)nc2ccc(C(=O)NCc3ccccc3)cc21 -1.38%
Cc1ccc(OCC(=O)Nc2ccc(S(=O)(=O)N(Cc3ccccc3)c3ccccc3)cc2)cc1 -14.8%
CCCCn1cc(S(=O)(=O)c2ccc(Cl)cc2)c(=O)c2cc(F)c(N3CCCCC3)cc21 -8.24%
Cc1cc(C)c2oc(C(=O)Nc3c(C(=O)Nc4ccccc4)oc4ccccc34)cc(=O)c2c1 -0.148%
CCc1ccc2occ(CC(=O)Nc3sc4c(c3C(=O)OC)CCC4)c2c1 -3.86%
CSC1=NC2(CCN(C(=O)NC3CCCCC3)CC2)N=C1c1ccc(C(C)(C)C)cc1 -3.49%
O=C(C1CCN(c2nc3ccccc3[nH]2)CC1)N1CCN(c2cccc(Cl)c2)CC1 -6.73%
Cc1cc(C(C)(C)C)c(O)c(C)c1CC1=NCCN1 -1.13%
CCOC(=O)c1c(-c2ccc(OC)c(OC)c2)csc1NC(=O)c1ccc(F)cc1 -7.21%
Cc1cccc(C(=O)Nc2ccccc2C(=O)OCc2cc(=O)n3nc(C4CC4)sc3n2)c1 9.35%
COc1cc2c(-c3ccccc3Cl)nc3c(c(C)nn3-c3ccccc3)c2cc1OC -14%
Cc1nc2ccc(S(=O)(=O)NC(C(=O)NCc3ccc(Cl)cc3)C(C)C)cc2s1 (stereo not drawn) 2.15%
Cc1ccc(Nc2c(-c3ccc(N4CCOCC4)cc3)nc3ncccn23)cc1C -6.71%
COc1cc(NC(=O)Cn2cnc3sc(C)c(S(=O)(=O)N4CCN(C)CC4)c3c2=O)cc(OC)c1OC -2.22%
CC(C)c1ccc(NC(=O)C2CCCN(S(=O)(=O)c3ccc4[nH]c(=O)ccc4c3)C2)cc1 (stereo not drawn) -23.1%
CCCN(CCC)CCCNC(=O)c1cn(CC)c2ccc(S(=O)(=O)N3CCc4ccccc4C3)cc2c1=O -9.09%
CCOC(=O)c1oc2ccc(S(=O)(=O)n3nc(-c4cc(OCC)c(OCC)c(OCC)c4)cc3N)cc2c1C 6.63%
CCN(c1ccc(C)cc1C)S(=O)(=O)c1nnc(NC(=O)c2ccccc2OC)s1 11.4%
CCOc1cccc(C(=O)Nc2ccc(NC(=O)c3ccc(Br)cc3)cc2)c1 4.81%
O=C(CSc1oc(-c2ccco2)nc1S(=O)(=O)c1ccccc1)c1ccc(Cl)cc1 5.51%
CCN1CCN(c2cc3c(cc2F)c(=O)c(S(=O)(=O)c2cc(C)cc(C)c2)cn3CC)CC1 -0.613%
COc1ccc(-n2cc(-c3ccccc3)c3c(NCCc4ccc(OC)c(OC)c4)ncnc32)cc1 -2.24%
CCOC(=O)c1ccc(NC(=O)c2c(NCc3cc(OC)c(OC)cc3OC)sc3c2CCCC3)cc1 -9.96%
CCCc1cnc2c(c1SCC(=O)Nc1cccc(C)c1C)c(=O)n(C)c(=O)n2C 5.84%
CCOc1ccc(-c2nonc2NC(=O)COc2ccccc2)cc1 4.88%
CCc1ccc(N2CCn3c2nc2c3c(=O)n(CCCc3ccccc3)c(=O)n2C)cc1 16.6%
Cc1cc(C)cc(OCCn2c(CCNC(=O)C3CCCCC3)nc3ccccc32)c1 -5.27%

outcome, inactive:
COc1ccccc1NC(=O)C1=C(C)Nc2nc(SCc3ccccc3C)nn2C1CC(C)C (stereo not drawn)
CCc1ccc2oc(C(=O)Nc3nonc3CC)c(C)c2c1
COc1ccc(-n2ncc(C(=O)N3CCc4ccccc4C3)c2C2CCN(C(=O)OC(C)(C)C)CC2)cc1
Cc1cccc(CN2CCN(CC(=O)NCc3ccc(Cl)cc3)C2=O)c1
COc1ccc(C2=C(C)C(=O)N(Cc3ccc(C(=O)NCc4ccc(C)cc4)cc3)S2(=O)=O)cc1
COc1cccc(N2C(=O)CSC23C(=O)N(CC(=O)NCc2ccc(C)cc2)c2ccccc23)c1 (stereo not drawn)
COc1ccccc1CNC(=O)c1c(O)nc2cc(C)ccn2c1=O
CCOC(=O)c1ccc2c(c1)N(CC(=O)Nc1ccc(CC)cc1)C(=O)c1ccccc1S2
CCc1ccc(Cn2nnc(C(=O)Nc3ccc(C)cc3)c2N)cc1
COc1cccc(CNCCSc2nnnn2C)c1OCc1ccc(Cl)cc1
CCOC(=O)c1ccc(NC(=O)CC2C(=O)N(c3ccccc3)C(=O)N2C2CCCCC2)cc1 (stereo not drawn)
